Data published in PubChem BioAssay (NCI).
“And” between values parts separate entries of the source, which are not always exact repeats. Equal values may be shown once.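 A five-concentration, 48-hour dose response in 96-well plates underlies each endpoint, interpolated linearly between surrounding concentrations. GI50: concentration for 50% inhibition of growth. TGI is the concentration that stops growth completely.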

What follows are compounds tested on NCI-H322M lung (assay: NCI anticancer screen, dose series, 48 h).
`CCC1CCc2nc3sc(C(=O)Nc4ccccc4F)c(N)c3cc2C1` (stereo not drawn) was tested, and the GI50 was > 100 µM and the TGI was > 100 µM. `C=C(C)C1CC=C(C(=O)O)CC1` (stereo not drawn) showed a TGI of 4580 µM. For `O=C(O)C(Cc1ccc(O)cn1)NC(=O)C(F)(F)F` (stereo not drawn), the TGI was > 100 µM. With `CC(=O)N1NC(c2ccccc2)=CC(=O)/C1=C/C(=O)c1ccccc1` the TGI was > 100 µM. Compound `CN(C)CCOc1cc2c(c3ccccc13)-c1ccccc1C2=O` has a TGI of 6.09 µM. For `COC(C)(C)C(O)C(O)C[C@H](C)C1CC=C2C1(C)CCC1[C@@]3(C)CCC(OC(C)=O)C(C)(C)C3CC(OC3OC(COC(C)=O)C(O)C(O)C3O)[C@@]21C` (stereo partly drawn), the TGI was > 10 µM. For `Nc1ccccc1NC(=O)c1ccc(CSc2nc(N3CCOCC3)c3cccn3n2)cc1`, the GI50 was 1.81 µM and the TGI was > 100 µM. `CCc1ccccc1NC(=O)/C(CC(=O)c1c(C)n([O-])c2ccccc2[n+]1=O)=N\NS(=O)(=O)c1ccc(C)cc1` was tested, and the TGI was > 100 µM. For `O=c1oc2ccc(Cl)cc2c(=O)n1-c1ccc(Cl)cc1F`, the GI50 was 0.365 µM and the TGI was 15.6 µM. `CO/C(=N/N1CC1C(F)(F)F)c1ccncc1` (stereo not drawn) was tested, and the TGI was > 100 µM. In the case of `CCOC(=O)C(NNS(=O)(=O)c1ccc(C)cc1)S(=O)(=O)C(F)(F)C(F)(F)C(F)(F)C(F)(F)F` (stereo not drawn), the TGI is reported as > 100 µM. With `CS(=O)(=O)CCNCc1ccc(-c2ccc3ncnc(Nc4ccc(OCc5ccccc5)c(C(F)(F)F)c4)c3c2)o1` the GI50 was 8.67 µM and the TGI was > 25 µM. `CCOC(=O)/C(C#N)=C(/NS(=O)(=O)c1cc(C)c(Cl)cc1[S-])[n+]1ccc(N(C)C)cc1` was tested, and the TGI was > 100 µM. With `CCCCCCNC(=O)c1cc(NCc2cc(OC)ccc2OC)ccc1O` the TGI was > 100 µM. `CC[C@H](C)c1occ2c(O)c(C(=O)O)c(=O)cc-2c1C` was tested, and the TGI was 71 µM. `CCOC(=O)Cn1c(=O)c2nc(SC)sc2n(-c2ccc(C)cc2)c1=S` showed a TGI of 97.5 µM. In the case of `O=S(=O)(O)c1cc(S(=O)(=O)O)c2c(N=Nc3cccc4ccccc34)c(O)ccc2c1`, the TGI is reported as > 100 µM. `Cc1nnc(Nc2ccc(Cl)cc2)o1` was tested, and the TGI was > 10 µM. `CCCSc1cc(Cl)c(C)cc1S(=O)(=O)n1cc[nH]c1=O` was tested, and the TGI was > 100 µM. `COC(=O)[C@H](CCSC)NC(=O)c1ccc(CNC(=O)/C=C/c2cccc(Oc3ccccc3)c2)cc1` was tested, and the TGI was > 100 µM. `Nn1c(CCCl)nc2c(Br)cc(Br)cc2c1=O` gave a TGI of 86.5 µM. In the case of `Oc1c(Br)cc(Br)cc1CN(Cc1cc(Br)cc(Br)c1O)C1CCCCC1`, the TGI is reported as > 100 µM. In the case of `CCOC(=O)Cc1ccc(Nc2nc3cc(C(F)(F)F)ccc3nc2C(=O)OCC)cc1`, the TGI is reported as > 100 µM. `[N-]=[N+]=NC1(N=[N+]=[N-])C(=O)NN=C(c2ccccc2)C1=O` (stereo not drawn) was tested, and the TGI was > 100 µM. With `C=CCNC1=C2C[C@@H](C)C[C@@H](OC)[C@H](OC(=O)CN(C)C)[C@H](C)/C=C(\C)[C@@H](OC(N)=O)[C@H](OC)/C=C\C=C(/C)C(=O)NC(=CC1=O)C2=O` the TGI was 21.1 µM. In the case of `CC(C#N)c1cn(S(=O)(=O)c2ccccc2)c2ccccc12` (stereo not drawn), the TGI is reported as > 100 µM. `O=S(=O)(NCCNc1cc(-c2cn(-c3ccccc3)nc2-c2cccc(O)c2)ccn1)c1ccc(C(F)(F)F)cc1` gave a GI50 of 3.35 µM and a TGI of 17.3 µM. For `Cc1ccc2c(c1)C(=O)/C(=C1/CCc3ccc(C)cc31)C2`, the TGI was > 100 µM. In the case of `C/C(=N\O)c1sc(-n2nc(-c3ccccc3)cc2-c2ccccc2)nc1C`, the TGI is reported as > 31.6 µM. For `CC(=O)[O-].CC(=O)[O-].[Mn+2].c1ccc(/C(=N\Nc2ccccn2)c2ccccn2)cc1`, the TGI was 6.45 µM. With `COc1cc2[nH]c(C(=O)c3cc(OC)c(OC)c(OC)c3)c(N)c2cc1C#CCO` the GI50 was 0.705 µM and the TGI was > 100 µM. For `Nc1nc(N)c2nc(CNc3ccc(C(=O)CC(CCC(=O)O)C(=O)O)cc3)cnc2n1` (stereo not drawn), the GI50 was 4.21 µM and the TGI was > 100 µM. With `COc1ccc(-c2cc(-c3ccc(Nc4nc(Nc5ccc(Cl)cc5)nc(Nc5ccc(Cl)cc5)n4)cc3)no2)cc1` the GI50 was 23 µM and the TGI was > 100 µM. `COc1cc(CC2CCc3nc(N)nc(N)c3C2)cc(OC)c1OC` (stereo not drawn) was tested, and the TGI was > 100 µM. For `O=C(O)C(=O)Cc1ccc2c(c1)OCO2`, the TGI was > 100 µM. `O=C1C(=O)c2cc([N+](=O)[O-])ccc2-c2ccccc21` was tested, and the GI50 was 3.33 µM and the TGI was 10.7 µM. `CNC(=O)c1ccc(Nc2ncc(C(F)(F)F)c(NCc3nccnc3N(C)S(C)(=O)=O)n2)cc1` was tested, and the GI50 was 2.3 µM and 2.16 µM and 2.47 µM and the TGI was > 10 µM and 10.3 µM and 12.1 µM. In the case of `N#CN=Nc1cc(Cl)c(N=NC#N)cc1Cl`, the TGI is reported as > 100 µM. With `COc1cccc2c1C(=O)C(=O)c1c-2oc(=O)c2cc(C)cc(OC)c12` the TGI was > 75 µM. In the case of `O=C(Sc1c(-c2ccccc2)c(=O)n(-c2ccccc2)c(=S)n1-c1ccccc1)c1ccc(Cl)cc1`, the TGI is reported as > 100 µM. Work on `N=c1c2c(ncn1N)Oc1c(c(-c3ccccc3)nn1-c1ccccc1)C2c1ccc(Cl)cc1` (stereo not drawn) yielded a TGI of 3.31 µM. With `COc1ccc2[nH]c3c4c(c5cc(C(C)(C)C)ccc5c3c2c1)C(=O)N(c1ccccc1)C4=O` the TGI was > 100 µM. With `NC(=S)SCCC(=O)O` the TGI was > 100 µM. In the case of `C/C(=C\c1ccn(-c2ccc(N)c(C(F)(F)F)c2)n1)[C@@H]1C[C@@H]2O[C@]2(C)CCC[C@H](C)[C@H](O)[C@@H](C)C(=O)C(C)(C)[C@@H](O)CC(=O)O1`, the GI50 is reported as 0.0153 µM and the TGI is reported as > 32.5 µM. With `CNC(=O)Nc1cc2c3c(c1)CCCN3CCC2` the TGI was > 10 µM. In the case of `CCCCCCCC/C=C\CCCCCCCCNc1ccn(C2OC(COP(=O)(O)OC3CC(n4cc(F)c(=O)[nH]c4=O)OC3CO)C(O)C2O)c(=O)n1` (stereo not drawn), the TGI is reported as > 100 µM. `COc1ccccc1/C=C/C(=O)c1sc(-c2cccnc2)nc1C` was tested, and the TGI was > 100 µM.
